Reference: PubChem BioAssay AID1347417 (National Center for Advancing Translational Sciences (NCATS), 2020)
In all, about 120,000 compounds went through this assay and about 5,300 (4.4%) were called active. The inconclusive results got no clear call from the source; some entries with a clear call stand among them for comparison. Calls follow the shape of the dose curve; as a rule, active = well fitted inhibition curve with a large enough effect; inconclusive = small, poorly fitted or top-dose-only effect; inactive = no such curve, though single readings can be large or run the other way. Potencies beside an inconclusive call are fits to weak or partial responses and may not hold up.

assay: qHTS Primary assay for Inhibitors of Plasmodium falciparum Dd2 growth in vitro; also: nearly all actives have a fitted effect of over 65% in size; conditions: P. falciparum Dd2 growth, SYBR Green, 72 h; series mostly up to 28.9 µM
Outline: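 Readout: SYBR Green fluorescence, 485 nm excitation, 535 nm emission, after ~16 h lysis at 37C. Before that, Dd2-infected red cells (2.5% hematocrit) grew 72 h with compound, 29 uM top final concentration.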
Potency is read from the fitted curve at half-maximal effect; tags tell the direction and shape of the fitted curve.

| SMILES | Potency |
| --- | --- |
| COc1ccc(-n2cc(CN3CCC(CO)CC3)c(-c3cccc(F)c3)n2)cc1 | inconclusive: 17.8 µM [inhibitor, single point] |
| CC(C)c1nc2c(c(-c3ccc(O)cc3)n1)CCN(Cc1ccsc1)CC2 | inconclusive: 3.16 µM [inhibitor, single point] |
| O=S(=O)(NCCc1nnc2ccc(SCc3ccccc3Cl)nn12)c1ccccc1 | inconclusive: 17.8 µM [inhibitor, single point] |
| COc1cc(Nc2ccc3nnc(-c4ccccn4)n3n2)cc(OC)c1OC | inconclusive: 22.4 µM [inhibitor, single point] |
| CCOc1ccc(-c2nc(-c3ccccc3)c(-c3ccccc3)[nH]2)cc1OCC | inconclusive: 17.8 µM [inhibitor, single point] |
| Cc1nc(N2CCN(C(=O)c3cccc(Cl)c3)CC2)cc(C(F)(F)F)n1 | inconclusive: 12.6 µM [inhibitor, single point] |
| Cc1cccc2nc(-c3ccccn3)c(Nc3ccccc3)n12 | active: 7.08 µM |
| Cc1ccc(C2c3cc(OCc4nc(C(=O)NCC5CC5)co4)ccc3CCN2C(=O)C2CC2)cc1 (centres undefined) | inconclusive: 1.12 µM [inhibitor, partial curve, poor fit] |
| COCCN1C(=O)CS(=O)C12CCN(C(=O)c1cccc3[nH]ccc13)CC2 (centres undefined) | inconclusive: 17.8 µM [inhibitor, single point] |
| O=C(CN1C(=O)NC(c2ccccc2Cl)C2=C1COC2=O)Nc1ccccc1 (centres undefined) | inactive |
| CC(C)Cn1cc(NC(=O)N2CCN(c3cccc(C(F)(F)F)c3)CC2)c2ccccc2c1=O | inconclusive: 8.91 µM [inhibitor, single point] |
| CC(C)C1=NOC2(CCN(C(=O)c3ccc4c(c3)OCO4)C2)C1 (centres undefined) | inactive |
| c1ccc(CNC[C@H]2COCc3nc4ccccc4n32)cc1 | inconclusive: 11.2 µM [inhibitor, single point] |
| CC(=O)c1ccc(NC(=O)C2CCN(S(=O)(=O)c3ccc4[nH]c5c(c4c3)CCCCC5)CC2)cc1 | inconclusive: 14.1 µM [inhibitor, single point] |
| OC1CC(c2cc(NCC3(c4ccccc4)CCOCC3)ncn2)C1 (centres undefined) | inactive |
| CNc1ncccc1C(=O)N[C@H](c1cccs1)C1CC(O)C1 (some centres undefined) | inactive |
| CCOC(=O)CNC(=O)N1CCN(S(=O)(=O)c2ccc3c(ccn3C)c2)CC1 | inactive |
| O=S(=O)(c1cc(F)cc(F)c1)N1CCC(C2CCNC2)CC1 (centres undefined) | inconclusive: 11.2 µM [inhibitor, single point] |
| Cc1cccc(OCC(=O)NCCn2ccn3nc(-c4ccc(C)cc4C)cc3c2=O)c1 | inconclusive: 17.8 µM [inhibitor, single point] |
